This note sets out measurements from PubChem BioAssay AID1508624 (National Center for Advancing Translational Sciences (NCATS), 2021).

Each structure is given as a SMILES string. In all, about 48,000 compounds went through this assay and about 120 (0.25%) were called active. Another 4% or so got no clear call; they are omitted. Calls follow the shape of the dose curve; as a rule, active = well fitted activation curve with a large enough effect; inconclusive = small, poorly fitted or top-dose-only effect, or another doubt; inactive = no such curve, though single readings can be large or run the other way. The list shows a part of the results.

The test can be described thus: Primary qHTS for Identification of Small Molecule Activators of Huntingtin-Antisense Promoter Activity. Also: nearly all actives have a fitted effect of over 55% in size. Conditions: HEK293 HTT-AS promoter firefly luciferase reporter, 24 h; series mostly up to 57.5 µM; activity change, positive = activation: at the top concentration. Summed up: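 HEK293 luciferase promoter-reporter cells (2,500/well) plated 24 h, then compounds added at up to 57.5 uM final for 24 h at 37 °C. Firefly luminescence by Dual-Glo, normalized to vehicle (0%) and zero RLU (-100%).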
Background: Quantitative high-throughput screening tests each substance at several concentrations.
On to `CCN1CCc2c(sc(NC(=O)c3ccc(S(=O)(=O)N4CCCC(C)C4)cc3)c2C(=O)OC)C1` (configuration not stated), for which the “activity change, positive = activation” value is inactive: -24.1%.

With `Cc1ccccc1Cn1c(CN2CCC(C(=O)NCc3ccc(Cl)cc3)CC2)cc2ccccc21`, the “activity change, positive = activation” value is inactive: -5.74%.

Regarding `Cc1c(Cl)cccc1NC(=O)C(=O)NCCc1csc(-c2ccc(C(F)(F)F)cc2)n1`, the “activity change, positive = activation” value is inactive: -3.02%.

With `CCCCN(C)C(=O)c1ccc2c(=O)n3nc(Nc4cc(C)ccc4C)sc3nc2c1`, the “activity change, positive = activation” value was inactive: -22.9%.

As to `O=S1(=O)c2ccccc2N(Cc2ccccc2F)c2ccccc21`, the “activity change, positive = activation” value was inactive: -13.3%.

`COc1ccc(CCNC(=O)c2ccc(-n3c(C)cc4c3CCC(C)C4)cc2)cc1OC` (configuration not stated): the “activity change, positive = activation” value is inactive: 9.21%.

As for `Cc1cc(C)c(OCC(=O)N(Cc2ccc(N(C)C)cc2)Cc2ccco2)c(C)c1`, the “activity change, positive = activation” value was inactive: -33.3%.

For `O=C(NCc1ccc2c(c1)OCO2)c1ccc2c(c1)N(Cc1c(F)cccc1Cl)C(=O)c1ccccc1S2`, the “activity change, positive = activation” value is inactive: -17.8%.

As for `CCOc1ccc(NS(=O)(=O)c2ccc3c(c2)NC(=O)CCS3)cc1`, the “activity change, positive = activation” value is inactive: -11.9%.

Take `CCc1ccc(CNC(=O)C2CCN(c3nn4cc(-c5ccc(OC)cc5)nc4s3)CC2)cc1`: the “activity change, positive = activation” value is inactive: 7.44%.

In the case of `COc1ccc(C2=NC(c3ccccc3)=Nc3ccc(C)cc3N2)cc1`, the “activity change, positive = activation” value is inactive: -16.9%.

With `COC(=O)c1ccccc1NC(=O)c1ccc(CN2CC(=O)N3CCCCC3C2=O)cc1` (configuration not stated), the “activity change, positive = activation” value is inactive: -15.1%.

In the case of `COc1ccccc1N1CCN(CC(O)COc2ccc(Cl)c(C)c2)CC1` (configuration not stated), the activity change, positive = activation is inactive: 16.3% [at 11.5 µM, percent change from vehicle, -100% = no light].

`CN1CCN(C(=O)c2ccc3c(c2)N(Cc2ccc(F)cc2)C(=O)c2ccccc2S3(=O)=O)CC1`: the “activity change, positive = activation” value was inactive: -5.42%.

Turning to `COc1ccc(NC(=O)CSc2nnc(-c3ccncc3)n2-c2ccccc2)cc1`, the “activity change, positive = activation” value is inactive: -15.3%.

In the case of `CCC(C)NC(=O)c1c2c(nc3ccccc13)C(=O)N(C1CCCCC1)C2` (configuration not stated), the “activity change, positive = activation” value is inactive: 9%.

As to `CCOC(=O)c1cc(S(=O)(=O)Nc2ccccc2)[nH]n1`, the “activity change, positive = activation” value was inactive: -10.1%.

In the case of `O=C(CSc1n[nH]c(-c2ccc(F)cc2)n1)N1CCN(c2ccc(F)cc2)CC1`, the “activity change, positive = activation” value was inactive: -23.2%.

On to `NC(=O)c1cc(S(=O)(=O)NCc2cccc(Br)c2)cs1`, for which the “activity change, positive = activation” value was inactive: -9.01%.

For the molecule `COC(=O)c1ccc(NC(=O)Cn2c(=O)oc3ccccc32)cc1`, the activity change, positive = activation is inactive: 9.25% [at 11.5 µM, percent change from vehicle, -100% = no light].

On to `Cc1ccc(CNC(=O)c2ccc3c(c2)CCN3S(=O)(=O)c2ccc(Br)cc2)cc1`, for which the “activity change, positive = activation” value is inactive: -1.86%.

`COc1ccc(C2CC(=O)c3cc(-c4nc(-c5cccc([N+](=O)[O-])c5)cs4)c(=O)n(-c4ccccc4N)c3C2)cc1` (configuration not stated): the “activity change, positive = activation” value is inactive: -8.68%.

As to `Clc1ccc(C(Cn2ccnc2)OCc2c(Cl)cccc2Cl)c(Cl)c1` (configuration not stated), the activity change, positive = activation result was “inactive”.

Turning to `CCn1c(SCC(=O)Nc2cc(C)ccc2F)nnc1-c1ccccc1O`, the “activity change, positive = activation” value was inactive: 0.814%.

Take `COc1ccc(N2CC(NC(=O)C3CCCCC3)CC2=O)cc1` (configuration not stated): the “activity change, positive = activation” value was inactive: -4.68%.

Turning to `CCN(c1ccc(OC)cc1)S(=O)(=O)c1ccc2[nH]c3c(c2c1)CCCCC3`, the “activity change, positive = activation” value is inactive: -55.3%.

In the case of `CCOC(=O)CNC(=O)N1CCN(S(=O)(=O)c2ccc3c(ccn3C)c2)CC1`, the “activity change, positive = activation” value was inactive: -7.61%.

Consider `COc1ccc(CC(=O)N2CC(=O)Nc3ccc(F)cc3C2c2ccccc2)cc1` (configuration not stated), for which the “activity change, positive = activation” value is inactive: 0.587%.

On to `CC(=O)c1ccc(NC(=O)C2CCN(S(=O)(=O)c3ccc4[nH]c5c(c4c3)CCCCC5)CC2)cc1`, for which the “activity change, positive = activation” value is inactive: -28.8%.

`Cc1ccccc1CNC(=O)Cn1c(=O)c2cccn2c2cccnc21`: the “activity change, positive = activation” value is inactive: -9.6%.

On to `COc1ccccc1CNC(=O)c1ccc(N2CCCC2)c(NC(=O)NCc2ccc(C)cc2)c1`, for which the “activity change, positive = activation” value was inactive: -18.3%.

As to `CCCOc1ccc(C2c3c(oc4ccccc4c3=O)C(=O)N2c2nnc(C(C)C)s2)cc1` (configuration not stated), the “activity change, positive = activation” value is inactive: -5.69%.

With `Cc1ccc(-c2nc(CSc3nnc(C)n4c3cc3occc34)c(C)o2)cc1`, the “activity change, positive = activation” value was inactive: -6.32%.

`Cc1ccc(NC(=O)CN(Cc2ccccc2)S(=O)(=O)c2ccc3nc(C)sc3c2)c(C)c1`: the “activity change, positive = activation” value is inactive: -23%.

Take `Cc1cccc2nc(-c3ccccn3)c(Nc3ccccc3)n12`: the “activity change, positive = activation” value is inactive: -41.3%.

For `CN(C)c1ccc(CNC(=O)CCCN2C(=O)c3cccnc3Oc3ccc(Cl)cc32)cc1`, the “activity change, positive = activation” value was inactive: -5.58%.

In the case of `COc1ccc(CNC(=O)c2c(O)nc3c(C)cccn3c2=O)cc1`, the “activity change, positive = activation” value was inactive: -2.31%.

For `CCCCOC(=O)c1ccc(-n2nnc3c(sc4nc(C)cc(C)c43)c2=O)cc1`, the “activity change, positive = activation” value is inactive: 22.9%.

As for `CC(C)Cn1cc(NC(=O)N2CCN(c3cccc(C(F)(F)F)c3)CC2)c2ccccc2c1=O`, the “activity change, positive = activation” value is inactive: -25.1%.

Regarding `O=S(=O)(NCCc1nnc2ccc(SCc3ccccc3Cl)nn12)c1ccccc1`, the “activity change, positive = activation” value was inactive: -27.6%.

Take `Cc1cc(N2CCC(C)CC2)nc2ccc(NC(=O)Cc3ccccc3Br)cc12`: the “activity change, positive = activation” value is inactive: -24.4%.

Take `COc1cc2nc(Nc3cccc(F)c3)nc(N)c2cc1OC`: the “activity change, positive = activation” value is inactive: -10.2%.

On to `CCOc1ccc(-c2nc(-c3ccccc3)c(-c3ccccc3)[nH]2)cc1OCC`, for which the “activity change, positive = activation” value is inactive: -36.6%.

Regarding `CCOC(=O)N[C@H](Cc1c[nH]c2ccccc12)C(=O)Nc1cccc(Cl)c1`, the “activity change, positive = activation” value was inactive: -15.7%.

As for `COc1ccc(OC)c(NC(=O)c2nc(S(=O)(=O)Cc3ccc(F)cc3)ncc2Cl)c1`, the “activity change, positive = activation” value was inactive: -94%.

For `CC(C)n1nc(-c2cc3cc(O)ccc3[nH]2)c2c(N)ncnc21`, the “activity change, positive = activation” value is inactive: -43.6%.

Turning to `CCc1ccc(C2CC(=O)Nc3c2c(=O)n(C)c2ncnn32)cc1` (configuration not stated), the “activity change, positive = activation” value was inactive: -7.13%.
